Reference: the supplement of paper PMC4604168 (melanoma cell lines)
Some of the results follow. Repeats are few or missing, and single values can be far off.

Columns and labels:
Test in all cases: cell count relative to DMSO control; melanoma cells; higher = more viable cells
Conditions in all cases: library dose: low library concentration; 72 h
COLO792 = system: COLO792
COLO800 = system: COLO800
COLO829 = system: COLO829
G361 = system: G361
IPC-298 = system: IPC-298
IST-MEL1 = system: IST-MEL1
LB2518-MEL = system: LB2518-MEL
LOXIMVI = system: LOXIMVI
MEL-HO = system: MEL-HO
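Also: cell number obtained by counting DAPI-stained nuclei in high-throughput microscope images with image analysis software, screen run in 1,536-well plates.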

| SMILES | cell count (COLO792) [%] | cell count (COLO800) [%] | cell count (COLO829) [%] | cell count (G361) [%] | cell count (IPC-298) [%] | cell count (IST-MEL1) [%] | cell count (LB2518-MEL) [%] | cell count (LOXIMVI) [%] | cell count (MEL-HO) [%] |
| --- | --- | --- | --- | --- | --- | --- | --- | --- | --- |
| CS(=O)(=O)CCNCc1ccc(-c2ccc3ncnc(Nc4ccc(OCc5cccc(F)c5)c(Cl)c4)c3c2)o1 [lapatinib] + CC(C)CCN1c2nc(Nc3cc(F)c(O)c(F)c3)ncc2N(C)C(=O)C1C [BID1870] (first compound 0.8 µM, partner dose 0.2 µM) | 78.5 | 86.6 | 97.3 | 75.1 | 92.3 | 99.8 | 99.3 | 101 | 78.7 |
| CS(=O)(=O)CCNCc1ccc(-c2ccc3ncnc(Nc4ccc(OCc5cccc(F)c5)c(Cl)c4)c3c2)o1 [lapatinib] + NCC(=O)Nc1ccc(-n2nc(C(F)(F)F)cc2-c2ccc3c(ccc4ccccc43)c2)cc1 [OSU03012] (first compound 0.8 µM, partner dose 1 µM) | 82.7 | 94 | 83.1 | 95.3 | 88.6 | 97.4 | 112 | 86.7 | 95.3 |
| C=CCNC1=C2C[C@@H](C)C[C@H](OC)[C@H](O)[C@@H](C)/C=C(\C)[C@H](OC(N)=O)[C@@H](OC)/C=C\C=C(/C)C(=O)NC(=CC1=O)C2=O [Tanespimycin] + C=CCn1c(=O)c2cnc(Nc3ccc(N4CCN(C)CC4)cc3)nc2n1-c1cccc(C(C)(C)O)n1 [MK1775] (first compound 0.002 µM, partner dose 0.02 µM) | 94.1 | 55.8 | 96.2 | 94.2 | 95.5 | 93 | 89 | 89.7 | 88.4 |
| CNC(=O)c1cc(Oc2ccc(NC(=O)Nc3ccc(Cl)c(C(F)(F)F)c3)cc2)ccn1 [sorafenib] + COc1ccc(COc2ccc(Cc3cnc(N)nc3N)cc2OC)cc1 [GW2580] (first compound 0.4 µM, partner dose 1 µM) | 127 | 95.3 | 99 | 114 | 83.3 | 95.6 | 101 | 130 | 99.3 |
| CNC(=O)c1cc(Oc2ccc(NC(=O)Nc3ccc(Cl)c(C(F)(F)F)c3)cc2)ccn1 [sorafenib] + CN(NC(=O)CC(=O)NN(C)C(=S)c1ccccc1)C(=S)c1ccccc1 [STA4783] (first compound 0.4 µM, partner dose 0.006 µM) | 81.1 | 38.1 | 71.1 | 70.9 | 97.2 | 92 | 96.4 | 104 | 97.9 |
| CS(=O)(=O)CCNCc1ccc(-c2ccc3ncnc(Nc4ccc(OCc5cccc(F)c5)c(Cl)c4)c3c2)o1 [lapatinib] + CC1(C)NC(=O)N(c2ccc([N+](=O)[O-])c(C(F)(F)F)c2)C1=O [nilutamide] (first compound 0.8 µM, partner dose 1 µM) | 87.9 | 120 | 110 | 106 | 110 | 105 | 120 | 86.7 | 100 |
| C=CCNC1=C2C[C@@H](C)C[C@H](OC)[C@H](O)[C@@H](C)/C=C(\C)[C@H](OC(N)=O)[C@@H](OC)/C=C\C=C(/C)C(=O)NC(=CC1=O)C2=O [Tanespimycin] + O=C(O)c1ccc(-c2c[nH]c3ncc(-c4ccccc4)cc23)cc1C1CCCC1 [GSK650394] (first compound 0.002 µM, partner dose 0.16 µM) | 106 | 115 | 80.5 | 90.1 | 93.7 | 87.8 | 103 | 83.8 | 93.5 |
| CS(=O)(=O)CCNCc1ccc(-c2ccc3ncnc(Nc4ccc(OCc5cccc(F)c5)c(Cl)c4)c3c2)o1 [lapatinib] + N#Cc1c(O)c2c(-c3ccc(-c4ccccc4O)cc3)csc2[nH]c1=O [A769662] (first compound 0.8 µM, partner dose 2 µM) | 90.6 | 103 | 122 | 88.3 | 96.4 | 98.9 | 97.5 | 100 | 96.3 |
| C[C@@H](Oc1cc(-c2cnn(C3CCNCC3)c2)cnc1N)c1c(Cl)ccc(F)c1Cl [Crizotinib] + Cc1cc([N+](=O)[O-])ccc1NS(=O)(=O)c1cc(Cl)ccc1Cl [FH535] (first compound 0.2 µM, partner dose 1 µM) | 96.9 | 156 | 74.6 | 97.8 | 92.3 | 95.1 | 103 | 106 | 97 |
| C=CCNC1=C2C[C@@H](C)C[C@H](OC)[C@H](O)[C@@H](C)/C=C(\C)[C@H](OC(N)=O)[C@@H](OC)/C=C\C=C(/C)C(=O)NC(=CC1=O)C2=O [Tanespimycin] + Cc1ccc(NC(=O)c2cccc(N(C)C)c2)cc1NC(=O)c1ccc(O)cc1 [ZM336372] (first compound 0.002 µM, partner dose 2 µM) | 125 | 77.7 | 106 | 118 | 78 | 95.4 | 114 | 110 | 91.6 |
| CNC(=O)c1cc(Oc2ccc(NC(=O)Nc3ccc(Cl)c(C(F)(F)F)c3)cc2)ccn1 [sorafenib] + CC(C)(C)c1cnc(CSc2cnc(NC(=O)C3CCNCC3)s2)o1 [SNS-032] (first compound 0.4 µM, partner dose 0.01 µM) | 109 | 133 | 98.9 | 103 | 105 | 91.8 | 104 | 92.7 | 93.7 |
